The list shows a part of the results. Sequences were assembled here from the parent chain. Inactive controls read about 0.05.
B1: TEV protease; numbered along this chain (parent)
chain: MGESLFKGPRDYNPISSSICHLTNESDGHTTSLYGIGFGPFIITNKHLFRRNNGTLVVQSLHGVFKVKDTTTLQQHLVDGRDMIIIRMPKDFPPFPQKLKFREPQREERICLVTTNFQTKSMSSMVSDTSCTFPSGDGIFWKHWIQTKDGQCGSPLVSTRDGFIVGIHSASNFTNTNNYFTSVPKNFMELLTNQEAQQWVSGWRLNADSVLWGGHKVFMVKPEEPFQPVKEATQL

Variants of: B1
Experiment: raw area under fraction-flipped curve 0-4 h after induction (AUC4h, not background-subtracted), DNA-recorder readout of cleavage of the substrate (dimensionless); higher = more cleavage of the substrate by the protease variant
Settings: temperature: 34 °C; time window: 0-4 h after rhamnose induction
Method: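 In vivo DNA recorder in E. coli TOP10(DE3) ΔrhaA at 34 °C. Each TEVp single-site mutant (parent TEVp 0) is paired with a single-site variant of the 7-mer TEVs (canonical ENLYFQ|S). The substrate sits between flexible linkers in a Bxb1-sfGFP-TEVs-SsrA fusion, so cleavage stabilises Bxb1 and speeds flipping of a recombination array, read by NGS. The value is the raw area under the fraction-flipped curve over 0-4 h after rhamnose induction (AUC4h), with ≥20 reads per time point. It is not background-subtracted; inactive controls average about 0.047.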
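Further: Bxb1 expression induced with 0.2% (w/v) L-rhamnose at OD600 near 0.5, cultures sampled hourly, flipped fraction per protease–substrate barcode pair counted by paired-end Illumina sequencing.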

| Variant | area with substrate ENLYFQA | area with substrate ENLYFQC | area with substrate ENLYFQD | area with substrate ENLYFQE | area with substrate ENLYFQG | area with substrate ENLYFQH | area with substrate ENLYFQI | area with substrate ENLYFQL | area with substrate ENLYFQM | area with substrate ENLYFQN | area with substrate ENLYFQR | area with substrate ENLYFQS | area with substrate ENLYFQT | area with substrate ENLYFQV | area with substrate ENLYFQW | area with substrate ENLYFQY | area with substrate ENLYFQF | area with substrate ENLYFQK | area with substrate ENLYFQP | area with substrate ENLYFQQ |
| --- | --- | --- | --- | --- | --- | --- | --- | --- | --- | --- | --- | --- | --- | --- | --- | --- | --- | --- | --- | --- |
| K221S | 0.105 | 0.112 | 0.0725 | 0.0647 | 0.132 | 0.0715 | 0.0352 | 0.0532 | 0.0849 | 0.082 | 0.0618 | 0.0984 | 0.059 | 0.0594 | 0.0672 | 0.0673 | – | – | – | – |
| P222A | 0.103 | 0.133 | 0.0775 | 0.0723 | 0.0846 | – | 0.0491 | – | – | – | – | 0.0954 | 0.0602 | 0.0622 | 0.0651 | 0.0779 | 0.0742 | 0.056 | 0.0589 | – |
| P222I | 0.0887 | 0.0969 | 0.0846 | – | 0.0924 | – | 0.0531 | 0.0583 | 0.0958 | 0.0748 | 0.0642 | 0.0927 | 0.0654 | 0.0585 | 0.0718 | 0.0587 | 0.0629 | – | – | 0.0792 |
| E223N | 0.1 | 0.106 | – | 0.0589 | – | 0.0777 | 0.0563 | 0.0498 | – | 0.065 | – | 0.0889 | 0.074 | – | – | – | 0.0937 | 0.0572 | 0.0586 | 0.068 |
| E223Y | 0.097 | 0.0859 | – | – | 0.0876 | – | 0.0595 | 0.0541 | 0.0774 | 0.0868 | 0.0511 | 0.0964 | 0.0623 | – | – | – | – | – | – | 0.0574 |
| P225C | 0.0808 | 0.101 | – | – | 0.0818 | 0.0786 | 0.0595 | 0.0712 | 0.0848 | 0.0719 | 0.0603 | 0.097 | 0.0649 | 0.0636 | – | 0.0789 | – | 0.0544 | 0.0861 | 0.0492 |
| P225K | 0.0697 | 0.106 | 0.0784 | – | 0.11 | 0.0777 | – | 0.0604 | 0.0837 | 0.108 | 0.0622 | 0.101 | 0.0536 | 0.0618 | – | 0.0771 | – | 0.0631 | – | – |
| F226E | 0.123 | 0.132 | 0.0726 | – | – | – | 0.0618 | 0.0604 | 0.115 | – | 0.0652 | 0.109 | 0.0692 | – | 0.0705 | 0.0856 | – | 0.0877 | 0.0731 | 0.0656 |
| F226Q | 0.115 | 0.125 | – | 0.0502 | 0.122 | 0.0957 | 0.06 | 0.0625 | 0.0798 | 0.0596 | 0.0642 | 0.11 | 0.0745 | 0.0795 | – | 0.093 | – | 0.0676 | 0.0599 | 0.0772 |
| V229Q | 0.0786 | 0.12 | 0.0661 | – | 0.0838 | – | 0.064 | 0.0519 | – | 0.0411 | 0.0405 | 0.092 | 0.0829 | – | 0.0629 | – | – | – | – | – |
| K230S | 0.095 | 0.0955 | 0.0697 | 0.0687 | 0.0591 | – | 0.0589 | 0.0525 | 0.093 | 0.0651 | 0.0746 | 0.104 | 0.0738 | 0.0348 | 0.073 | 0.0722 | 0.0773 | 0.0824 | – | – |
| T233E | 0.0826 | – | – | – | – | 0.0888 | 0.0742 | – | – | 0.105 | – | 0.109 | – | 0.0561 | 0.043 | – | – | – | 0.0347 | – |
| T233M | 0.0847 | 0.0889 | – | – | 0.0919 | – | 0.0481 | – | 0.0689 | 0.0633 | 0.045 | 0.0993 | 0.0704 | – | 0.0665 | – | – | 0.0514 | – | – |

— the supplement of paper PMC12217912
